# ± gives the standard error. Variants at the background level are over-represented here.
# B1: glmS ribozyme (parent)
# chain: AUAAAAGCGCCAGAACUACAGAAAUGUAGUUGACGAGGAGGAGGUUUAUCGAAUUUUCGGCGGAUGCCUCCAAA
# Assays:
# Details in all cases: with glucosamine-6-phosphate
# [1] = variants of: B1; test: self-cleavage kobs at 640 uM GlcN6P; higher = faster cleavage; RNA array
# In short: (§1)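 Glucosamine-6-phosphate (40 μM to 10 mM) in HEPES/KCl/Mg(OAc)2 buffer was flowed over sequenced MiSeq chips, and tiles were imaged over ~14 h. Barcoded ribozyme variants there had been transcribed in situ by E. coli RNA polymerase and were tracked through a hybridised Cy3 probe at 37 °C. One- or two-exponential decay fits to per-tile medians, normalised to baseline and to non-cleaving reference variants, gave kobs. kcat and KM came from weighted Michaelis–Menten fits across concentrations.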
# [2] = variants of: B1; test: self-cleavage kobs at 2500 uM GlcN6P; higher = faster cleavage; RNA array
# In short: as §1
# [3] = variants of: B1; test: self-cleavage kobs at 160 uM GlcN6P; higher = faster cleavage; RNA array
# In short: as §1
# [4] = variants of: B1; test: self-cleavage kobs at 10000 uM GlcN6P; higher = faster cleavage; RNA array
# In short: as §1
Variant,self-cleavage kobs at 640 uM GlcN6P [1] [s⁻¹],self-cleavage kobs at 2500 uM GlcN6P [2] [s⁻¹],self-cleavage kobs at 160 uM GlcN6P [3] [s⁻¹],self-cleavage kobs at 10000 uM GlcN6P [4] [s⁻¹]
G9U U47A,< 1e-05,< 1e-05,,
G9C U31A G44U A52G,< 1e-05,< 1e-05,< 1e-05,
C10A C16U C61U C71A,< 1e-05,,,
G9U A14C A53U G62A C67G,< 1e-05,< 1e-05,,
G9A G40A G43C G60A,< 1e-05,< 1e-05,,
C10A A42U A52G,< 1e-05,,,
C10A U30C U47A G60C,< 1e-05,< 1e-05,,
C10A G29U A64G,< 1e-05,,< 1e-05,
G9C A14G U56A A64G C68A,< 1e-05,,,
G9U C34G G38C G43A U46C U55G,< 1e-05,,,
G9C U56C,< 1e-05,< 1e-05,< 1e-05,< 1e-05
G9A U31C,< 1e-05,< 1e-05,< 1e-05,
C10G A14C A42G A64G,< 1e-05,< 1e-05,,
G9U A39U G44A C71A,< 1e-05,,,
C10A U31G,< 1e-05,< 1e-05,,
C10A U31C U45C U47G U57C,< 1e-05,< 1e-05,,
G9A U30C A42C,< 1e-05,,< 1e-05,
C10A C16U G51C G60U,< 1e-05,,,
C10A C34A A42C,< 1e-05,< 1e-05,,
G9U C10U C34G A53U G63C U65A,< 1e-05,,,
C10A G40C G62C,< 1e-05,< 1e-05,,
G9U G40C G51A,< 1e-05,< 1e-05,< 1e-05,

Variant,self-cleavage kobs at 640 uM GlcN6P [1] [s⁻¹],self-cleavage kobs at 2500 uM GlcN6P [2] [s⁻¹],self-cleavage kobs at 160 uM GlcN6P [3] [s⁻¹],self-cleavage kobs at 10000 uM GlcN6P [4] [s⁻¹]
C10A U31A U56C,< 1e-05,< 1e-05,,< 1e-05
G9C C16U G32C C58G G66A,< 1e-05,,,
C10G A15U G43C,< 1e-05,,< 1e-05,
C10A C16A G51U A64C,< 1e-05,,,
C10A C61G C67G,0.00401 ± 0.0011,,,
G9A G38C U57A,< 1e-05,,,
G9U C61G G62A,< 1e-05,< 1e-05,< 1e-05,
G9C U31C C67U,< 1e-05,< 1e-05,,
G9U C10A G29C G37A G43C A48U C50G C70A,< 1e-05,,,
G9U C16U U57G C68U,< 1e-05,,< 1e-05,
C10A G29U U49G U56G C58A C67U,< 1e-05,,,
G9U G38A,< 1e-05,,< 1e-05,
G9A G38C A42G,< 1e-05,,< 1e-05,
G9U A14C A52G,< 1e-05,,,
G9C G32A G41C C50G C70U,< 1e-05,,< 1e-05,
C10A G32A U46G,< 1e-05,< 1e-05,,
G9U G13U,< 1e-05,< 1e-05,< 1e-05,
G9C U55G C67A,< 1e-05,< 1e-05,,
G9C G29A G32U U57A,< 1e-05,,,
G9C C16G G38U U65A,< 1e-05,< 1e-05,,
C10G A15C G35U,< 1e-05,< 1e-05,,
C10G A14C U46C,< 1e-05,< 1e-05,,

Variant,self-cleavage kobs at 640 uM GlcN6P [1] [s⁻¹],self-cleavage kobs at 2500 uM GlcN6P [2] [s⁻¹],self-cleavage kobs at 160 uM GlcN6P [3] [s⁻¹],self-cleavage kobs at 10000 uM GlcN6P [4] [s⁻¹]
G9U G13C G43A,< 1e-05,,,
C10A A12G A42U,< 1e-05,,,
G9U A14C U45G U56G,< 1e-05,,< 1e-05,
G9C A14U U45A,< 1e-05,< 1e-05,< 1e-05,
G9U U54C,< 1e-05,,,
C10A U56G,< 1e-05,,,
G9U A15U G59C,< 1e-05,,,
G9C C19A U31C,< 1e-05,< 1e-05,< 1e-05,
G9U C11G C67U,< 1e-05,,,
C10A G38U C67A,< 1e-05,,,
G9U G40U,< 1e-05,< 1e-05,< 1e-05,< 1e-05
C10A C11G U30G G41U,< 1e-05,,,
C10A A33U G37U A39C,< 1e-05,,,
G9A U57C,< 1e-05,< 1e-05,,
G9U G13C G59A,< 1e-05,,,
G9U A39G C68U,< 1e-05,,< 1e-05,
G9U G13A G40A G51C G62U,< 1e-05,< 1e-05,,
C10A G60U G62U,< 1e-05,< 1e-05,,
G9U A15C C34U A53U C67U,< 1e-05,,,
C10A A42U A48C G59C,< 1e-05,< 1e-05,,
G9A G35A C58U C71U,< 1e-05,,,

# — the supplement of paper PMC7125110
